# In paper PMC12136788:
# Substitutions are numbered along the chain they refer to. This is one part of the list.
# T1: UNK ZnF1-3 (human, UniProt Q9C0B0 31-174)
# T1 sequence: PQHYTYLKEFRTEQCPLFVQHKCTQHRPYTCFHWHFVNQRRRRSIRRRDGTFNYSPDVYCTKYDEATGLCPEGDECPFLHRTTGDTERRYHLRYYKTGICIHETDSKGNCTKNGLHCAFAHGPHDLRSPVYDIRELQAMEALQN
# B1: chr9:95050471:95050472:-_ENSG00000196305_ENST00000443024|hu_hu|motif|central (ssRNA)
# RNA: GGGAGUUCUACAGUCCGACGAUCAUCCCAUCCAAAUCUUCUGUCAACAUGAAACCCACUCUGGUGAGCAUAUCUUGUAACGGUAUCUUUAAUUGUACCCGCAAGUAUAUGUCCAUAGUGAGGCAGUCCAGUUGCAAAAGGAGGCAACAGAGGAUUGAGCAUCA
# B2: 89536129_89544291_861_3pUTR_ENSG00000138138_ENST00000328142|human|control|control (ssRNA)
# RNA: GGGAGUUCUACAGUCCGACGAUCUUCAUCAUGGCUGUAGCUUCAUGGUCAGAACUUGAACGGUUUCGUAGAAAGGAGUCUAUUUCAUCUAUAAAGAUGAUGGAUGGUUGUAGCUUUAUGGCAAGGGAGAAGACAGCAGCAGCCCAACAGAGGAUUGAGCAUCA
# B3: chr2:135777783:135777784:+_ENSMUSG00000039943_ENSMUST00000110109|mus_hu|FALSE|FALSE (ssRNA)
# RNA: GGGAGUUCUACAGUCCGACGAUCGAUGGCUUGAAUUACAUCCUUAAAAAGGAUAUCUGUACACAUUGCUUUUCCAUGAGUUAUUAUUGGUUCUUGGUCUUCACCUUUUCCAUCCCAGCAGUCAAGUUCAACACAUCUGCAACCCAACAGAGGAUUGAGCAUCA
# B4: chr3:105770834:105770835:+_ENSMUSG00000000561_ENSMUST00000010278|mus_mus|motif|central (ssRNA)
# RNA: GGGAGUUCUACAGUCCGACGAUCACAGGAAAACACUCAUCUCUCACACACAACACCAAGGAAGGAAAGGGUGAACAAGAGCGGCACUGCAGGGCCAAAUUUAUUCACCCAGAAAAUGGAUUUGACUCAGUAUAACAGGGACUUCAACAGAGGAUUGAGCAUCA
# B5: chr2:183846084:183846085:-_ENSG00000061676_ENST00000360982|hu_mus|motif|central (ssRNA)
# RNA: GGGAGUUCUACAGUCCGACGAUCGAGGUAUUGCACGUAGUACCUCUGCAUGACAGGCCCAUACUUCCUGACAUGUGCUCGGAGCUCUUCCAUGUAAAAUAUUAGCUCAGCAAUGUGCUUAUCUAUAAAGUCAUCUGCACUCUUCAACAGAGGAUUGAGCAUCA
# B6: chr8:104447970:104447971:+_ENSG00000164934_ENST00000297579|hu_hu|hu_hu_hu_mus_False|58_58 (ssRNA)
# RNA: GGGAGUUCUACAGUCCGACGAUCAUACACUUCCCUGCUUCGGCUCUUGUCCACAGGAAAGAUUCUAAUAGACUUAUCGAAACUAGCAGACACAAAUUCCUUCCCAGUGGGAGAGUAGUCCACAUCAAGUACUGCAGACACGUGCAACAGAGGAUUGAGCAUCA
# B7: chr1:165623523:165623524:+_ENSG00000143198_ENST00000367886|perfect_dup|FALSE|FALSE (ssRNA)
# RNA: GGGAGUUCUACAGUCCGACGAUCAUAGCCAUAAGCAUAAAGAACUCGUCCAACAAUCCAGGCCAAGCCCAGGCCAGAAGCUAUACGCGGGUGGUAAACACCUCCAACAGCUAGAAAAAAUAAGAAGGGAGGAUACACUUCCAACAACAGAGGAUUGAGCAUCA
# B8: 110719532_110719652_107_3pUTR_ENSG00000174437_ENST00000539276|human|control|control (ssRNA)
# RNA: GGGAGUUCUACAGUCCGACGAUCCGUUGACGCCGAAGUGGCCCAGCACCUCCUCCACCGUCUUGGUGUGCGCGUUCUCCAUGGCUUCGGGGGCCCGGCCGGCCUCGCCUCCCGUCCCCGCGGCCUCCUCGCCUCCGCCUCGCACAACAGAGGAUUGAGCAUCA
# B9: 53458154_53458274_1141_CDS_ENSG00000177613_ENST00000331173|human|control|control (ssRNA)
# RNA: GGGAGUUCUACAGUCCGACGAUCUAAUGGCCCUCCCCUCAUCUCAUGUGAGGAAGGGCCACGAGUGUCAUGACCAGAGGCAUGAUGCAUGGGGGGACCCUGAUGGGGUGGACCCAGAUAACCUCUGGGCUCCACUUCUCCAGUCAACAGAGGAUUGAGCAUCA
# B10: chr8:95500983:95500984:-_ENSG00000164944_ENST00000437199|hu_hu|hu_hu_hu_mus_True|8_98 (ssRNA)
# RNA: GGGAGUUCUACAGUCCGACGAUCAGAACACAUCUAUUCGUGUAAAGACCGUACAUGACGGCCUCUACCACUGCCUCCACUAACAAACUUUCCUCUCGAGCCUCCACUGCCGCUAUUUGUACUAGCCCCAGGAAGGUCCAGGCCCAACAGAGGAUUGAGCAUCA
# B11: 153191644_153191764_77_5pUTR_ENSMUSG00000023150_ENSMUST00000023918|mouse|control|control (ssRNA)
# RNA: GGGAGUUCUACAGUCCGACGAUCGGGUACUCGCGGGAACUCGCUCGCCGCCACGACGCGCCCAGCACCUCCGAGCGACUGACCGACCUCCACGCGCGUCCCGAACACACUGCCACCGCCGCCGCCGCCGCGCGCGCUCGCGCCCAACAGAGGAUUGAGCAUCA
# B12: 102315511_102315631_8827_3pUTR_ENSG00000166135_ENST00000299163|human|control|control (ssRNA)
# RNA: GGGAGUUCUACAGUCCGACGAUCUAUAUUCAAGAGGUAAUAAAAACCUGGCCCAAGCUUAGCUUAGAUGAUGGGUUAAGGAGCACAGCUUUCCUGAUAGUUCUGACCUCAAUGACCAAGUGAAUAGGUUUUAAGUAAACGGAACAACAGAGGAUUGAGCAUCA
# B13: chr16:94690093:94690094:+_ENSMUSG00000040785_ENSMUST00000117648|mus_hu|mus_mus_mus_hu_True|28_58 (ssRNA)
# RNA: GGGAGUUCUACAGUCCGACGAUCGGGCUGGGAUGACGGACACACAGCCUCGAUUCCAGGGGGAAAAAGUCUUAGUCAAUACUAAUUAAAAAGUGUUAAUGAUUUUUAUUACCAAAAUUACAUCUAUAAAAGAUGAAAAGCAAACAACAGAGGAUUGAGCAUCA
# B14: chr8:104447970:104447971:+_ENSG00000164934_ENST00000297579|hu_hu|hu_hu_hu_mus_False|18_98 (ssRNA)
# RNA: B6 RNA with G42A, C45U, G78A, A81G, A84G, G117A
# Molecular target: T1, UNK ZnF1-3
# Experiment: nsRBNS (natural sequence RNA bind-n-seq); RBNS binding buffer (assumed for nsRBNS): 25 mM Tris pH 7.5, 150 mM KCl, 3 mM MgCl2, 0.01% Triton X-100, 500 ug/ml BSA, 20 U/ml SUPERase-In, 4 C; UNK is unkempt and MSI1 is Musashi-1; names of the RNAs are library labels; protein concentration not given here; high values mean tight binding
row,Binder,binding signal [enrichment R]
1,B1,0.484
2,B2,1.47
3,B3,0.864
4,B4,1.49
5,B5,0.719
6,B6,0.897
7,B7,1.6
8,B8,0.973
9,B9,0.71
10,B10,0.984
11,B11,1.22
12,B12,2.01
13,B13,1.62
14,B14,0.912
